# PubChem BioAssay AID2546 (National Center for Advancing Translational Sciences (NCATS), 2010)
# Hit rate of the full screen: of about 310,000 compounds, about 11,000 (3.5%) were called active. Inconclusive means that the source gave no clear call. Such entries were picked first, then a sample of the others. Calls follow the shape of the dose curve; as a rule, active = well fitted inhibition curve with a large enough effect; inconclusive = small, poorly fitted or top-dose-only effect, or effect the other way; inactive = flat fitted curve, though single readings scatter. Potencies of inconclusive entries are left out as doubtful fits.
# Assay: VP16 counterscreen qHTS for inhibitors of ROR gamma transcriptional activity;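 also: Gal4-VP16 expression switched on by copper sulfate through the metallothionein promoter; nearly all actives have a fitted effect of over 50% in size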
# Settings: Drosophila S2 Gal4-VP16 UAS-luciferase, luminescence, 20 h; series mostly up to 53.6 µM
# Potency is read from the fitted curve at half-maximal effect; tags tell the direction and shape of the fitted curve.
row,Structure (SMILES),Potency
1,CSc1ccccc1NC(=O)C(=O)c1c[nH]c2ccccc12,"inconclusive [inhibitor, single point]"
2,CCCCCn1c(=O)[nH]c2cc(C(=O)N3CCN(Cc4ccc5c(c4)OCO5)CC3)ccc2c1=O,"inconclusive [inhibitor, single point]"
3,C=CC(C1=CC(=O)C(OC)=CC1=O)c1ccc(O)cc1 (stereo not given),inactive
4,CCCc1nnc(NC(=O)Nc2ccccc2OC)s1,"inconclusive [activator, partial curve]"
5,CN(C)/C=C1\C(=O)N(c2ccc(Cl)c(Cl)c2)CS1(=O)=O,"inconclusive [activator, full curve, poor fit]"
6,N#Cc1cccc(NC(=O)COc2ccc(-n3ccnc3)cc2)c1,"inconclusive [inhibitor, single point]"
7,COC(=O)C1=C(C)N(c2cc(C)cc(C)c2)/C(=C/c2ccc(O)cc2)C1=O,"inconclusive [inhibitor, single point]"
8,O=C(Nc1nccs1)c1ccc(N2CCOCC2)c([N+](=O)[O-])c1,"inconclusive [inhibitor, single point]"
9,Clc1ccc(Cn2cnc3ccccc32)cc1,"inconclusive [inhibitor, single point]"
10,COc1ccccc1-c1nnc(SCC(=O)OC(C)C)o1,"inconclusive [inhibitor, single point]"
11,O=C(CSc1nnnn1-c1ccc(Cl)cc1)Nc1cccnc1Cl,"inconclusive [inhibitor, single point]"
12,O=C1CC(Sc2ccc(Cl)cc2)C(=O)N1Cc1ccncc1 (stereo not given),"inconclusive [inhibitor, single point]"
13,Cc1cc(C)c2c(NC(=S)NC(=O)c3ccccc3)nn(C)c2n1,active: 5.01 µM
14,CCOC(=O)Cc1csc(NC(=O)NC2(C(F)(F)F)Oc3ccc(Cl)cc3O2)n1 (stereo not given),"inconclusive [inhibitor, single point]"
15,CCS(=O)(=O)c1ccc(O)c(NC(=O)COc2ccc(OC)cc2)c1,"inconclusive [activator, single point]"
16,C[C@@H]1CC[C@]2(C(=O)O)CC[C@]3(C)C(=CCC4[C@@]5(C)C[C@@H](O)[C@H](O)[C@@](C)(CO)C5CC[C@]43C)C2[C@H]1C (stereo not given in full),active: 17.8 µM
17,Cc1[nH]c2ccccc2c1/C=N/NC(=O)C1CC1(c1ccccc1)c1ccccc1 (stereo not given),"inconclusive [inhibitor, single point]"
18,CC1=CC(C)(C)N(C(=O)CNC2CCCCC2)c2cc(C)ccc21,inactive
19,CN1CCN(c2ccc(Cl)cc2NS(=O)(=O)c2ccccc2Cl)CC1,inactive
20,O=C1CN(C(=O)COC(=O)C2CCN(S(=O)(=O)c3ccccc3C(F)(F)F)CC2)c2ccccc2N1,"inconclusive [inhibitor, single point]"
21,COc1ccc(S(=O)(=O)N2CCC(C(=O)N[C@H](C(=O)N3CCCC3)C(C)C)CC2)cc1,inactive
22,CCOc1cc(C)c(S(=O)(=O)NCc2ccccn2)cc1C,"inconclusive [inhibitor, single point]"
23,COc1cc(C(=O)NC(=S)Nc2ccc(Cl)cn2)cc(OC)c1OC,active: 11.2 µM

row,Structure (SMILES),Potency
1,CS(=O)(=O)c1ccc(Cl)c(NC(=O)Nc2ccccc2)c1,inactive
2,Cc1ccc(S(=O)(=O)NC(=S)NC2CCCCC2)cc1,active: 14.1 µM
3,COc1ccc(C2CC(c3cccs3)=NN2C(=S)Nc2ccccc2)cc1OC (stereo not given),inactive
4,N#CC(C#SN)=C1CCCCC1,"inconclusive [inhibitor, single point]"
5,Cc1cccc(C(=O)NNc2ncnc3c2cnn3C)c1,inactive
6,CCCCCCn1ccc(=N)cc1,active: 7.08 µM
7,Cc1cccc(NS(=O)(=O)c2cc(C(=O)OC(C)C(=O)NCc3ccc4c(c3)OCO4)ccc2C)c1 (stereo not given),"inconclusive [inhibitor, single point]"
8,O=C(COC(=O)CNS(=O)(=O)c1cccc(Br)c1)NC(=O)Nc1ccc2c(c1)OCCO2,inactive
9,CCCn1c(C)nc2c(NCCN3CCCC3)nc(C)nc21,inactive
10,CSc1ccc(/C=N/NC(=O)c2cccc(O)c2)cc1,active: 2.24 µM
11,O=C(CCC(=O)N1CCN(S(=O)(=O)c2ccc(Cl)cc2)CC1)Nc1ccc(Cl)cc1Cl,"inconclusive [inhibitor, single point]"
12,Cc1ccc(-c2nc(N/N=C/c3cccnc3)c3ccccc3n2)cc1,"inconclusive [inhibitor, single point]"
13,CN(C(=S)NC(=O)C1(C)CC1(Cl)Cl)c1ccccc1 (stereo not given),"inconclusive [inhibitor, single point]"
14,CCC(=O)N1c2ccc(C)cc2C2=NNC(=S)NC21O (stereo not given),"inconclusive [inhibitor, partial curve]"
15,CCN(CC)CCN(C(=O)c1ccc2ncsc2c1)c1nc2cc3c(cc2s1)OCO3,"inconclusive [inhibitor, partial curve]"
16,NNc1nc2sc3c(c2c(=O)n1-c1ccccc1)CCCC3,"inconclusive [inhibitor, single point]"
17,COc1ccc(CNC(=O)c2ccc(Cn3nc(C)c([N+](=O)[O-])c3C)o2)cc1,active: 5.01 µM
18,CC(C)Oc1cc(NC(=O)CS(=O)CC(=O)Nc2cccc(C(F)(F)F)c2)c(Cl)cc1Cl (stereo not given),"inconclusive [inhibitor, single point]"
19,C=CCN1C(=O)C(CC(=O)Nc2ccc(OCCC)cc2)N(CCCN2CCN(Cc3ccccc3)CC2)C1=S (stereo not given),"inconclusive [inhibitor, single point]"
20,COc1ccc(C(=O)Cn2c(C(=O)/C=C/c3ccccc3)nc3ccccc32)cc1,"inconclusive [inhibitor, partial curve]"
21,N#Cc1c(Nc2ccccc2)s[nH]c1=O,active: 11.2 µM
22,CCOC(=O)c1sc(N/N=C/c2cc(Br)c(O)c(OC)c2)nc1C,"inconclusive [inhibitor, single point]"
